In the supplement of paper PMC7826260:
The other results are listed elsewhere or left out. The data describe in vitro nicking of single-stranded DNA by Rep domains (3 µM enzyme, 1 h, 37 °C); shown is the middle of each 90-letter strand. The score is log2 (uncut reads / reads without enzyme); strong cutting gives strongly negative numbers. There is no active / inactive call. Because reads are shares of a total, they shift together; values above 0 arise when much of the pool is cut.

Key:
Assay in all cases: uncleaved DNA left, log2 of reads against the no-enzyme library (log2 ratio); higher = less cleavage (more negative = more Rep cleavage of the k-mer); sequences stand for … in CTCGTCCG…ACCGGAGA
[1] = test system: T1, Rep nickase domain of Muscovy duck circovirus
T1 sequence (residues 1-111, tag not shown): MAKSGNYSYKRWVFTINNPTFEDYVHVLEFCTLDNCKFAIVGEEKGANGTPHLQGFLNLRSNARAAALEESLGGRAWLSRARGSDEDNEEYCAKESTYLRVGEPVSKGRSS
Protocol: (§1)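 A pool of 90-nt single-stranded DNAs with seven random bases just before the constant AC of the nick site (name = the seven bases) was cut by 3 µM recombinant His6-SUMO-tagged Rep nickase domain (300 nM DNA, 50 mM HEPES pH 8.0, 50 mM NaCl, 1 mM MnCl2, 1 h, 37 °C, three replicates). Uncut DNA was amplified and sequenced.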

[2] = test system: T2, Rep nickase domain of banana bunchy top virus
T2 sequence (residues 1-94, tag not shown): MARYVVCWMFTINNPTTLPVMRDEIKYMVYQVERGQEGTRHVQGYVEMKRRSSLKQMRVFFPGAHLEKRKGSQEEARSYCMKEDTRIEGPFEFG
Protocol: as §1

[3] = test system: T3, Rep nickase domain of cabbage leaf curl virus
T3 sequence (residues 1-116, tag not shown): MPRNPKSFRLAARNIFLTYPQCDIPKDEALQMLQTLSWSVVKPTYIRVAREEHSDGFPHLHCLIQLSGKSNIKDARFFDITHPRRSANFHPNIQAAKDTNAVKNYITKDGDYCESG
Protocol: as §1

[4] = test system: T4, Rep nickase domain of chickpea chlorotic dwarf virus
T4 sequence (residues 1-124, tag not shown): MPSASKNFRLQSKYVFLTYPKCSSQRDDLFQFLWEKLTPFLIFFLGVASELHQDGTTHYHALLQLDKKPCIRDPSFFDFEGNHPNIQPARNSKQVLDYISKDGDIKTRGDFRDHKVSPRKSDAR
Protocol: as §1

[5] = test system: T5, Rep nickase domain of faba bean necrotic yellows virus
T5 sequence (residues 1-98, tag not shown): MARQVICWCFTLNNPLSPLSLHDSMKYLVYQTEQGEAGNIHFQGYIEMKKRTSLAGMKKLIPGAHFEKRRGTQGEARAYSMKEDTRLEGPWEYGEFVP
Protocol: as §1

[6] = test system: T6, Rep nickase domain of maize striate mosaic virus
T6 sequence (residues 1-117, tag not shown): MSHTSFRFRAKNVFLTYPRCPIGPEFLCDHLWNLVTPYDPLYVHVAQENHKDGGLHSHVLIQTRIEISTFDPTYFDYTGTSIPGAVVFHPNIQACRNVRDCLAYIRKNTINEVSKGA
Protocol: as §1

[7] = test system: T7, Rep nickase domain of porcine circovirus 2
T7 sequence (residues 2-116, tag not shown): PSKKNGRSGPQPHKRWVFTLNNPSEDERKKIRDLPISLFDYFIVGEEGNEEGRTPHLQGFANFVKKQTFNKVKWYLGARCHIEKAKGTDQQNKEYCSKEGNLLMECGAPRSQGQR
Protocol: as §1

[8] = test system: T8, Rep nickase domain of tomato yellow leaf curl virus
T8 sequence (residues 1-136, tag not shown): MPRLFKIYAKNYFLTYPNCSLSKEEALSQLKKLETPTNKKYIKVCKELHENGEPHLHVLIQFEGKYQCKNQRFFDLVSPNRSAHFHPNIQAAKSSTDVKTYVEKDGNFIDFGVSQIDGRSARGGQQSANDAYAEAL
Protocol: as §1

[9] = test system: T9, Rep nickase domain of wheat dwarf virus
T9 sequence (residues 1-137, tag not shown): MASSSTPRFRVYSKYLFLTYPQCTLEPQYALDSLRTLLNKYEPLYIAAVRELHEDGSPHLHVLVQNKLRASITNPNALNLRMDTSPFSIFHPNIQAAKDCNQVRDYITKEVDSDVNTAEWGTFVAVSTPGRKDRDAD
Protocol: as §1

| Sequence | uncleaved DNA left (log2) [1] | uncleaved DNA left (log2) [2] | uncleaved DNA left (log2) [3] | uncleaved DNA left (log2) [4] | uncleaved DNA left (log2) [5] | uncleaved DNA left (log2) [6] | uncleaved DNA left (log2) [7] | uncleaved DNA left (log2) [8] | uncleaved DNA left (log2) [9] |
| --- | --- | --- | --- | --- | --- | --- | --- | --- | --- |
| ATGGGCT | 0.0382 | 0.0173 | 0.0966 | 0.394 | 0.0693 | 0.519 | 0.0971 | -0.191 | -0.117 |
| TCCAACC | -0.212 | -0.0785 | -0.0448 | -1.72 | -0.0402 | -0.463 | -1.14 | -0.0617 | -0.0299 |
| CTCCCTG | -0.0993 | -0.234 | -0.315 | -0.623 | -0.155 | -0.502 | -0.0903 | -0.184 | -0.204 |
| CAGCTAT | 0.0164 | 0.0541 | 0.109 | -1.43 | -0.0247 | 0.131 | -2.76 | -0.0474 | -0.0811 |
| CCCCTCA | -0.0589 | 0.035 | -0.0489 | -0.854 | -0.0398 | -0.393 | -0.197 | -0.0375 | 0.0112 |
| AATCCAT | 0.113 | 0.11 | -0.0849 | -1.18 | 0.0308 | -0.323 | -0.227 | 0.107 | 0.127 |
| CGAGAAG | -0.0259 | -0.0552 | -0.542 | -0.395 | 0.0101 | -0.987 | 0.165 | 0.0886 | -0.12 |
| GTCAAAT | 0.0821 | 0.153 | 0.398 | 0.905 | 0.0158 | 1.69 | 0.0789 | -0.00956 | 0.0462 |
| AAGCACA | 0.00401 | 0.115 | 0.077 | -1.26 | 0.0576 | 0.387 | -0.406 | -0.0951 | 0.0133 |
| GTTGTTT | -0.0159 | -0.00892 | 0.307 | 0.73 | -0.0306 | 1.59 | 0.0271 | 0.0979 | -0.0478 |
| ATACAAC | -0.0631 | 0.0337 | -0.121 | -2.37 | 0.0583 | -0.672 | 0.0766 | -0.0823 | 0.0238 |
| CGCCGTT | -0.114 | -0.139 | -0.108 | -0.906 | 0.0155 | -0.35 | -0.153 | 0.0299 | -0.0721 |
| TTCAAGT | 0.0739 | 0.0858 | 0.277 | -0.188 | 0.0829 | -0.479 | -0.0582 | 0.0933 | -0.0134 |
| GCATTGC | 0.0138 | -0.0591 | -0.605 | 0.737 | -0.0614 | -0.323 | 0.0903 | 0.0383 | -0.175 |
| CAACCTT | -0.0497 | -0.0703 | -1.72 | -2.67 | 0.0307 | -0.834 | -1.56 | 0.0493 | -0.373 |
| ACAACTG | 0.0408 | 0.08 | -0.319 | -0.0283 | 0.00972 | -0.318 | 0.104 | -0.0199 | 0.0791 |
| CCTCAAG | 0.0408 | -0.135 | -0.892 | -0.705 | -0.2 | -1.26 | 0.149 | -0.191 | -0.134 |
| CGCCTCC | 0.0695 | -0.0156 | 0.141 | 0.246 | 0.000181 | 0.573 | 0.0641 | 0.0066 | 0.0221 |
| GTGCAGA | -0.032 | -0.0502 | 0.185 | 0.773 | -0.0489 | 0.535 | 0.0993 | 0.0321 | 0.00668 |
| GGAGTAC | -0.065 | 0.0322 | 0.698 | 1.7 | -0.0143 | 2.06 | 0.132 | -0.00956 | 0.112 |
| GTTCAGC | 0.0683 | 0.125 | 0.261 | 0.699 | 0.0752 | 0.747 | 0.0907 | 0.032 | 0.0565 |
| TTTAGCG | 0.0457 | -0.127 | -0.742 | 0.531 | -0.0363 | -0.776 | 0.131 | -0.0388 | -0.0922 |
| ATGTGAA | 0.0726 | -0.00972 | 0.0983 | 0.0829 | 0.0797 | -0.074 | -0.0893 | -0.035 | 0.0698 |
| ACCCAAG | 0.144 | 0.121 | -0.351 | 0.202 | 0.0839 | -0.732 | 0.255 | -0.0409 | 0.0574 |
| ACAGTCC | 0.0416 | -0.0304 | -0.166 | -0.132 | 0.0391 | -0.465 | 0.0377 | -0.234 | -0.0229 |
| GTTAGGT | 0.0795 | 0.108 | 0.39 | 1.1 | -0.0659 | 1.77 | 0.0253 | 0.0508 | 0.0148 |
| GTGCCGG | 0.17 | -0.0479 | 0.478 | 1.18 | 0.0201 | 1.51 | -0.00502 | 0.0654 | 0.0153 |
| ACCGATG | -0.0141 | 0.0743 | -0.436 | -0.232 | -0.0212 | -1.08 | 0.0506 | 0.0385 | -0.0682 |
| GTCAGGA | 0.0748 | 0.0607 | 0.356 | 0.741 | 0.00436 | 0.567 | 0.128 | 0.11 | 0.0186 |
| GGACAGT | 0.0406 | 0.0315 | 0.853 | 1.98 | -0.0222 | 2.24 | 0.163 | 0.0161 | 0.142 |
